Screen size: about 350,000 compounds; about 31,000 (8.9%) were called active. The inconclusive results got no clear call from the source; some entries with a clear call stand among them for comparison. Calls follow the shape of the dose curve; as a rule, active = well fitted inhibition curve with a large enough effect; inconclusive = small, poorly fitted or top-dose-only effect; inactive = no such curve, though single readings can be large or run the other way. Potencies beside an inconclusive call are fits to weak or partial responses and may not hold up.
The molecules below were run against Histone-lysine N-methyltransferase EHMT2 (Homo sapiens) (UniProt Q96KQ7) (assay: qHTS Assay for Inhibitors of Histone Lysine Methyltransferase G9a). Details: G9a H3K9 monomethylation, AlphaScreen, 2 h; activity, negative = inhibition: at 59 µM (top of the series) unless noted.
How it was run: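 Methyltransferase reactions run at room temperature for 2 h (20 nM enzyme, 500 nM biotin-H3K9 peptide, 20 uM SAM) after a 15 min compound preincubation; product detected by AlphaScreen beads and anti-H3K9me1 antibody.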
% is scaled to controls: 0 for no effect and ±100 for the full control effect; potency is read from the fitted curve at half-maximal effect; tags tell the direction and shape of the fitted curve.
Also: nearly all actives have a fitted effect of over 75% in size.

UniProt Q96KQ7, sequence (Q96KQ7 whole entry, looked up): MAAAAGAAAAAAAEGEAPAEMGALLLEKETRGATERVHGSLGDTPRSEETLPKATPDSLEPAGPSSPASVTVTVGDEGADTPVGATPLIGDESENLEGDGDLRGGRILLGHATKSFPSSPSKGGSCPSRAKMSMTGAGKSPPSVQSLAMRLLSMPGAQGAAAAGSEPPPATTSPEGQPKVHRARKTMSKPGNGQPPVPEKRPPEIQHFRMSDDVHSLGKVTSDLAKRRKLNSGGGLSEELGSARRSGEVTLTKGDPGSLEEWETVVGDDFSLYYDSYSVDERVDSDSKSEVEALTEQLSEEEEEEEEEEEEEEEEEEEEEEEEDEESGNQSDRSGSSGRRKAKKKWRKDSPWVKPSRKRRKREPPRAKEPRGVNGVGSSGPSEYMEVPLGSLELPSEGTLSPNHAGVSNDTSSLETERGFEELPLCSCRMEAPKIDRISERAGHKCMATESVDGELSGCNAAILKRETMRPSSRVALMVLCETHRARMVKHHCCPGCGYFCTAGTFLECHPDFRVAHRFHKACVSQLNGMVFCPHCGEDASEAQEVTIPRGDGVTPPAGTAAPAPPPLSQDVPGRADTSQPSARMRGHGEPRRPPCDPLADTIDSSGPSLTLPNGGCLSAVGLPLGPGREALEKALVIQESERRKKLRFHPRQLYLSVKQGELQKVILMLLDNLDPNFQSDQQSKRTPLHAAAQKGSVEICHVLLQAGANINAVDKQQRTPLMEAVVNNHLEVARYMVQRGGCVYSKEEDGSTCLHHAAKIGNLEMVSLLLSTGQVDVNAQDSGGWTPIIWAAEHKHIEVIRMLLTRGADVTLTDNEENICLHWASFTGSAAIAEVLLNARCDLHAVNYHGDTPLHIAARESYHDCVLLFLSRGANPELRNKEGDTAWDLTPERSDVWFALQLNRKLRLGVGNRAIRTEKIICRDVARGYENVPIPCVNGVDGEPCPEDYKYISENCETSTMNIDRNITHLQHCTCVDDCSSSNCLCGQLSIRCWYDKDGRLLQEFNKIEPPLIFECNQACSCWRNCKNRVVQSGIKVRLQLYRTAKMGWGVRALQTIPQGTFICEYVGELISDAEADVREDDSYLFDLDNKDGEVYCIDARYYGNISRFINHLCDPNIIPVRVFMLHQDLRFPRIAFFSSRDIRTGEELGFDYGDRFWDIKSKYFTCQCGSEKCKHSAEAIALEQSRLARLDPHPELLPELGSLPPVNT

Compound | Potency | activity, negative = inhibition
CCN1CCN(C(=O)CN2C(=O)c3ccccc3S2(=O)=O)CC1 | inconclusive: 79.4 µM [inhibitor, single point] | –
CC1(C)CC(=O)C2=C(C1)NC(=S)C(C#N)C21CCCCC1 (stereo unspecified) | active: 0.501 µM | –
FC(F)(F)c1cccc(N2CCN(c3ncnc4c3nc3n4CCCC3)CC2)c1 | – | inactive: 6.93%
CC1CCCCC1NC(=O)CSc1nnc(-c2ccncc2)n1CCCN(C)C (stereo unspecified) | active: 3.98 µM | –
COC(=O)C1=C(C)N(Cc2ccccc2)C(=NCc2cc(OC)c(OC)c(OC)c2)N[C@H]1c1ccccc1 | inconclusive: 89.1 µM [inhibitor, single point] | –
Cc1ccccc1NC(=O)Cn1cc(S(=O)(=O)c2ccccc2)c(=O)c2ccccc21 | inconclusive: 39.8 µM [inhibitor, single point] | –
O=C(Nc1ccc(N2CCCCC2)cc1)c1ccc2ccccc2n1 | active: 28.2 µM | –
COc1ccc2[nH]c3c(c2c1)CCN1C(=O)N([C@@H](C)C(=O)NCCc2ccc(F)cc2)C(=O)[C@]31C | active: 50.1 µM | –
CCn1c(SCC(=O)N/N=C/c2ccc(C)o2)nnc1-c1ccc(C(C)(C)C)cc1 | inconclusive: 39.8 µM [inhibitor, single point] | –
O=C(CNCc1ccccc1)Nc1cccc(Cl)c1Cl | active: 10 µM | –
COc1ccc(NC(=O)CSc2nnc3ccc(-c4cccnc4)nn23)c(OC)c1 | – | inactive: -5.04% [at 102 µM]
COc1cccc(-c2csc(N3CCN(S(=O)(=O)c4ccc(F)cc4)CC3)n2)c1 | inconclusive: 89.1 µM [inhibitor, single point] | –
COc1cc(CNC(=O)c2ccc3nc(Cc4ccccc4)oc3c2)cc(OC)c1OC | – | inactive: 3.68%
CCOc1ccc(NC(=O)C2CCCN(C(=O)Nc3ccccc3)C2)cc1 (stereo unspecified) | – | inactive: -10.8%
Cc1cc(C)n(CCNc2nc3nonc3nc2N2CCCCC2)n1 | inconclusive: 89.1 µM [inhibitor, single point] | –
CCCN(Cc1cc2cc(C)ccc2[nH]c1=O)C(=O)c1cccc([N+](=O)[O-])c1 | – | inactive: 28.4%
CC12CN(C(=O)c3ccco3)CC(c3ccccc3)(CN(C(=O)c3ccco3)C1)C2=O | inconclusive: 39.8 µM [inhibitor, single point] | –
Cc1cc(C)c(NC(=O)CN2CCCCCC2)c(C)c1 | – | inactive: 41.6% [at 0.501 µM]
CN(Cc1cnn(C)c1)C(=O)CC1C(=O)NCCN1Cc1cccc(Oc2ccccc2)c1 (stereo unspecified) | active: 25.1 µM | –
CCCNC(=O)c1ccccc1SCc1c(C)noc1C | active: 25.1 µM | –
CS(=O)(=O)N(CC(=O)NCCSCc1c(F)cccc1Cl)c1ccc2c(c1)OCO2 | inconclusive: 56.2 µM [inhibitor, partial curve, poor fit] | –

— PubChem BioAssay AID504332 (National Center for Advancing Translational Sciences (NCATS), 2011)
